The test system of the assay is Z138 cells. Kind of assay: Z138 cell proliferation assay (XTT). The format is cell-based. Particulars: Homo sapiens, Z-138, 168 h, 7 day treatment, 9-point dose response starting with 10 μM, XTT read at 465 nm. The procedure:
Z138 cells were seeded in a 96-well round-bottom plate and treated with varying concentration of compound. The final DMSO concentration was maintained at 0.05%. The selected compounds of present invention were screened in a 9-point dose response format starting with 10 μM and 1/3rd serial dilution. On the 4th day, cells were spun down and media was replaced while maintaining the initial compound concentration in each well. At the end of the 7th day, cells were spun down and media was aspirated. 50 µL of XTT containing media was added to the wells. The plates were read using the M3 spectrophotometer at 465 nm. GI50 values were calculated by fitting the dose response data to sigmoidal curve fitting equation using GraphPad Prism software V7.
The compounds were screened in the above mentioned assay procedures for determining IC50 and GI50 values in inhibiting PRMT5.
For orientation: Formazan colour is commonly taken as a measure of viable cells.

What is called GI50 is the concentration at which growth is held to half of that of the control. Higher therefore signals lower sensitivity of the cells.

The compound `CC(=O)N1CCC(c2ccc(CN3CCN(C[C@H](O)CN4CCc5ccccc5C4)C3=O)nn2)CC1` [Compound 38, (R)-1-((6-(1-acetylpiperidin-4-yl)pyridazin-3-yl)methyl)-3-(3-(3,4-dihydroisoquinolin-2(1H)-yl)-2-hydroxypropyl)imidazolidin-2-one] registered a GI50 of less than 100 nM. The figure for `CS(=O)(=O)N1CCC(c2ccc(CN3CCN(C[C@H](O)CN4CCc5ccccc5C4)C3=O)nc2)CC1` [Compound 43, (R)-1-(3-(3,4-dihydroisoquinolin-2(1H)-yl)-2-hydroxypropyl)-3-((5-(1-(methylsulfonyl)piperidin-4-yl)pyridin-2-yl)methyl)imidazolidin-2-one] is less than 100 nM; for `COc1cc(-c2ccc(CN3CCN(C[C@H](O)CN4CCc5ccccc5C4)C3=O)cn2)ccn1` [Compound 58, (R)-1-(3-(3,4-dihydroisoquinolin-2(1H)-yl)-2-hydroxypropyl)-3-((2′-methoxy-[2,4′-bipyridin]-5-yl)methyl)imidazolidin-2-one] it is less than 100 nM.

Compound `CC1COCCC1c1ccc(CN2CCN(C[C@H](O)CN3CCc4ccccc4C3)C2=O)nc1` (stereo partly drawn) [Compound 68, 1-((R)-3-(3,4-dihydroisoquinolin-2(1H)-yl)-2-hydroxypropyl)-3-((5-(3-methyltetrahydro-2H-pyran-4-yl)pyridin-2-yl)methyl)imidazolidin-2-one] had a GI50 of less than 100 nM. The figure for `O=C1N(Cc2ccc(C3CCCOC3)cn2)CCN1C[C@H](O)CN1CCc2ccccc2C1` (stereo partly drawn) [Compound 77, 1-((R)-3-(3,4-dihydroisoquinolin-2(1H)-yl)-2-hydroxypropyl)-3-((5-(tetrahydro-2H-pyran-3-yl)pyridin-2-yl)methyl)imidazolidin-2-one] is 100 to 300 nM; for `CC(=O)N1CCN(c2ccc(CN3CCN(CC(O)CN4CCn5nccc5C4)C3=O)nc2)CC1` (centres unmarked) [Compound 85, 1-((5-(4-acetylpiperazin-1-yl)pyridin-2-yl)methyl)-3-(3-(6,7-dihydropyrazolo[1,5-a]pyrazin-5(4H)-yl)-2-hydroxypropyl)imidazolidin-2-one] it is more than 300 nM. The figure for `O=C1N(Cc2ccc(-n3ccccc3=O)cn2)CCN1C[C@H](O)CN1CCc2ccccc2C1` [Compound 101, (R)-6′-((3-(3-(3,4-dihydroisoquinolin-2(1H)-yl)-2-hydroxypropyl)-2-oxoimidazolidin-1-yl)methyl)-2H-[1,3′-bipyridin]-2-one] is 100 to 300 nM. For `O=C(c1ncc(-c2ccc(CN3CCN(C[C@H](O)CN4CCc5ccccc5C4)C3=O)nc2)cn1)N1CCCC1` [Compound 102, (R)-1-(3-(3,4-dihydroisoquinolin-2(1H)-yl)-2-hydroxypropyl)-3-((5-(2-(pyrrolidine-1-carbonyl)pyrimidin-5-yl)pyridin-2-yl)methyl)imidazolidin-2-one] the value was less than 100 nM.

The record behind these values is patent US11542275B2, “Substituted imidazolidin-2-one derivatives as PRMT5 inhibitors” (Aurigene Discovery Technologies Limited, priority 2018, dated 2023).
